Molecules are shown by their SMILES. Hit rate of the full screen: of about 310,000 compounds, about 2,200 (0.71%) showed an effect of 50% or more. The effect is printed as a negative number. Some of the results follow.

human ether-à-go-go-related gene (hERG) potassium channel, sequence (Q12809 whole entry, looked up): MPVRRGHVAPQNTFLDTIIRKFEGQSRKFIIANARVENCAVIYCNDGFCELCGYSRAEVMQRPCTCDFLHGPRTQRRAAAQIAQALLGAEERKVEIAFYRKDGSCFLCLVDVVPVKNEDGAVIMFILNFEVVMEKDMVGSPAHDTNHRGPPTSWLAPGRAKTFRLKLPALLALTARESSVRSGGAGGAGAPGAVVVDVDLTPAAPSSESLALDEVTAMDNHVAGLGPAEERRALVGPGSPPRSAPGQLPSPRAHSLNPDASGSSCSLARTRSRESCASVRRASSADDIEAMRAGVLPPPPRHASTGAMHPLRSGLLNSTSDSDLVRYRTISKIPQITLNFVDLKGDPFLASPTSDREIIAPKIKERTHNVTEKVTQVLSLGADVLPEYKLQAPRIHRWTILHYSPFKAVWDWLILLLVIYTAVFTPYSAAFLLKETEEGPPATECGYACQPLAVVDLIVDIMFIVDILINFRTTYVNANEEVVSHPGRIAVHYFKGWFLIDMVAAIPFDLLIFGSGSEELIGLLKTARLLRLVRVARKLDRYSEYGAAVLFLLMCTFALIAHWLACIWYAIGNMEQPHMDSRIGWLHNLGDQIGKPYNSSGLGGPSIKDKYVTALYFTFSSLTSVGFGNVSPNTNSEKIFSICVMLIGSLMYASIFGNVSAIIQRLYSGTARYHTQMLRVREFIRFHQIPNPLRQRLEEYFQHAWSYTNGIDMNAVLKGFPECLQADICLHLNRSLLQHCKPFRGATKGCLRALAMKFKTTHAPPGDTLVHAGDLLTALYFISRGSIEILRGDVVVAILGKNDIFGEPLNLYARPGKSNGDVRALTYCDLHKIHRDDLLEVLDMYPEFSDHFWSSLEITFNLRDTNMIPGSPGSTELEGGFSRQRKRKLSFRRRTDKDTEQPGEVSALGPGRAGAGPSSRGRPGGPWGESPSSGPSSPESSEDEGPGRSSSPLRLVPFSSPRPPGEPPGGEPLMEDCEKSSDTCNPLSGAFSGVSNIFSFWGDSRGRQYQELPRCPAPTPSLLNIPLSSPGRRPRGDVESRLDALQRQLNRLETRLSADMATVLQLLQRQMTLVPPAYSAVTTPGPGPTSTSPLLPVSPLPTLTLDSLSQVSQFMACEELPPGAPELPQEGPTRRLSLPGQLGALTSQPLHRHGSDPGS

The experiment addresses human ether-à-go-go-related gene (hERG) potassium channel (human, UniProt Q12809). The experiment in a line: primary screen, population patch clamp on CHO cells stably expressing hERG.
With `CCc1nc2c(c(=O)c3ccccc3n2C)c(=O)n1CCc1ccc(OC)cc1`, the “hERG current change (%, negative = inhibition) at 1uM” value is -37.7%. The figure for `CCc1c(C)nc2ncnn2c1N1CCC(C(=O)Nc2cccc(C(C)=O)c2)CC1` is 2.14%; for `Cc1ccc(NCc2ccccc2)cc1` it is 13.5%. For `O=C(O)CCNC(=O)COc1ccc2c3c(c(=O)oc2c1)CCCC3` the value was 13.9%. The figure for `O=[N+]([O-])c1cc(Cl)cc2c1nc(NCCO)c1ccccc12` is 14.5%; for `CC(C)CNc1oc(-c2ccco2)nc1C#N` it is 7.14%. As for `Cc1ccccc1Cn1ccc(NC(=O)c2nn(C)cc2[N+](=O)[O-])n1`, the “hERG current change (%, negative = inhibition) at 1uM” value is recorded as 8.95%. With `Cc1nc2ccccc2c(=O)n1NC(=O)Nc1ccccc1`, the “hERG current change (%, negative = inhibition) at 1uM” value is reported as -7.47%. The figure for `CCC(=O)N1CCN(c2ccc(NC(=O)c3cccs3)cc2)CC1` is 11.5%; for `CCn1c(C)c(C(C)=O)c(N2CCN(c3ccc(F)cc3)CC2)nc1=S` it is -24.3%; for `O=C(Nc1ccccc1)c1ccccc1Oc1ccc(C(F)(F)F)cc1[N+](=O)[O-]` it is 4.89%. On to `CCOC(=O)CSc1nc2cc(S(=O)(=O)N3CCOCC3)ccc2n1CC`, for which the “hERG current change (%, negative = inhibition) at 1uM” value is -9%.

Regarding `Cc1ccc(N2CC(C(N)=O)CC2=O)cc1C` (stereo not shown), the “hERG current change (%, negative = inhibition) at 1uM” value is listed as 0.182%. For `C[C@@H](NC(=O)c1cc2c([nH]c3ccccc32)c(-c2ccccc2)n1)C(=O)O` the value was 8.28%; for `COc1ccc(C(=O)N/C(=C\c2ccco2)C(=O)NCc2cccnc2)cc1`, -48.9%; for `Cc1ccc(C(=O)CCC(=O)Nc2ncccc2O)cc1`, 20.4%. The figure for `O=C(NCc1cc(C(F)(F)F)cc(C(F)(F)F)c1)C1CC(c2c(Cl)cccc2Cl)=NO1` (stereo not shown) is 13.7%; for `Cc1ccc(N2CC(=O)N(c3ccc(C)cc3)CC2=O)cc1` it is 15.1%; for `OC(CN1CCN(c2ncc(C(F)(F)F)cc2Cl)CC1)c1ccccc1` (stereo not shown) it is 1.4%. The figure for `Cc1ccn2cc(-c3nonc3C)cc2c1` is 4.72%. `COc1ccc([C@H]2CC(=O)C=C(c3cccc(C#N)c3)C2)cc1`: the “hERG current change (%, negative = inhibition) at 1uM” value is recorded as 2.28%. For `CCOC(=O)C1CCCN(C(=O)Cn2ncc3c([nH]c4ccccc43)c2=O)C1` (stereo not shown) the value was -3.08%. In the case of `COc1ccccc1NC(=O)C1CCCN(S(=O)(=O)c2ccc3c(c2)CC(C)N3C(C)=O)C1` (stereo not shown), the “hERG current change (%, negative = inhibition) at 1uM” value worked out at 21.3%.

With `COc1ccc(-n2nnnc2CNC(=O)C(=O)c2c(C)[nH]c3ccccc23)cc1`, the “hERG current change (%, negative = inhibition) at 1uM” value amounted to 3.65%.

Take `CC(=O)c1sc(NC(=O)c2ccc(Cn3cc(Br)cn3)o2)nc1C`: the “hERG current change (%, negative = inhibition) at 1uM” value is 0.922%. The figure for `CC(C)(C)c1ccc(S(=O)(=O)N2CCN(C(=O)C3CCC3)CC2)cc1` is 10.3%; for `Cc1ccc(Cn2ccnc2SCC(=O)NC2CCCC2)cc1` it is 10.7%. In the case of `Cc1ccc(S(=O)(=O)NC2c3cccc4cccc(c34)C2Sc2n[nH]c(N)n2)cc1` (stereo not shown), the “hERG current change (%, negative = inhibition) at 1uM” value is 19.5%.

Take `CCCCCc1ccc(-c2ccc(C(=O)O)cc2)nc1`: the “hERG current change (%, negative = inhibition) at 1uM” value amounted to 2.18%. The figure for `Cc1noc(NS(=O)(=O)c2ccc(NC(=O)CS(=O)(=O)c3ccccc3)cc2)c1C` is 4.45%. For `CCOC(=O)c1nccnc1C(=O)Nc1ccc(C(F)(F)F)cc1` the value was 14.4%; for `Cc1ccc(Cl)cc1NC(=O)CCS(=O)(=O)c1cccc2nonc12`, 10.8%; for `O=C(NCCc1ccccc1)C(=O)NCC(c1ccco1)N1CCOCC1` (stereo not shown), 13.8%. For the compound `O=S(=O)(c1ccccc1)c1nnn2c1nc(NC1CCN(Cc3ccccc3)CC1)c1ccccc12`, the “hERG current change (%, negative = inhibition) at 1uM” value was found to be 8.23%. For `COC(=O)C1=C(C(=O)OC)SC(=C2C(=S)C(C)(C)N(C(=O)C(C)C)c3ccccc32)S1` the value was 5.97%; for `O=C1c2ccc([N+](=O)[O-])cc2C(=O)N1Cc1cccnc1`, 15.7%. In the case of `COc1ccc(C(=O)N/N=C/c2ccc(OC)c(CN3CCCc4ccccc43)c2)cc1`, the “hERG current change (%, negative = inhibition) at 1uM” value is on record as -6.65%. Consider `Cc1c(C(=O)OCC(=O)Nc2ccc(S(N)(=O)=O)cc2)oc2c1ccc1ccccc12`, for which the “hERG current change (%, negative = inhibition) at 1uM” value was found to be 9.1%. For `Brc1ccc(-c2csc(N/N=C/c3ccco3)n2)cc1` the value was 9.56%; for `COc1ccc(S(=O)(=O)N2CCC(C(=O)NCc3ccncc3)CC2)cc1OC`, 14.4%; for `O=C(NNc1c2ccccc2nc2ccccc12)c1ccc(Cl)cc1`, 10.3%. `O=C(Cn1c(-c2ccccc2)noc1=O)Nc1ccc(S(=O)(=O)N2CCOCC2)cc1`: the “hERG current change (%, negative = inhibition) at 1uM” value was -4.86%. As for `CCOC(=O)N1CCC(NC(=O)c2ccc3c(c2)sc2nc(-c4ccc(OC)cc4)cn23)CC1`, the “hERG current change (%, negative = inhibition) at 1uM” value was found to be 13.8%. The figure for `Cc1ccc(/C(=C\CN2CCCC2)c2ccccn2)cc1.Cl` is -22%; for `CCOC(=O)c1cc(C#N)c(NCc2ccccc2)nc1C` it is 9.63%. Consider `CCCCC(=O)OCc1nc2ccccc2s1`, for which the “hERG current change (%, negative = inhibition) at 1uM” value was 7.46%. As for `COc1cc(C2CC(=O)N3CN(Cc4ccccc4)CSC3=C2C#N)ccc1OCc1ccccc1` (stereo not shown), the “hERG current change (%, negative = inhibition) at 1uM” value was 14.8%. The figure for `COc1ccccc1OCCC(=O)OCC(=O)c1c(N)n(C)c(=O)n(C)c1=O` is 1.47%; for `CCC(=O)NCC(c1cccs1)S(=O)(=O)c1ccc(C)cc1` (stereo not shown) it is 13.7%. For `COC(=O)c1c(NC(=O)CN2CCCc3ccccc32)sc(C)c1C` the value was 12.3%.

For `Cc1ccc(C(=O)OCC(=O)NCc2ccco2)cc1`, the “hERG current change (%, negative = inhibition) at 1uM” value was -0.27%. The figure for `COc1ccc(/C=N/Nc2nc3ccccc3c(=O)[nH]2)cc1` is -5.9%; for `CCOC(=O)Cc1csc(NC(=O)c2sc3nc4c(C)cc(C)cc4cc3c2N)n1` it is -0.344%; for `COCCNC(=O)c1cc(-c2ccc(OC)c(OC)c2)on1` it is -0.75%. The figure for `COc1ccccc1NC(c1cccnc1)c1ccc2cccnc2c1O` (stereo not shown) is 11.4%.

(Values after article PMC4336329 (PLoS ONE, 2015).)
